# Reference: PubChem BioAssay AID485294 (National Center for Advancing Translational Sciences (NCATS), 2010)
# About 150 (0.041%) of roughly 370,000 compounds were called active. The shares of active, inactive and inconclusive entries below differ from those in the screen. The call rests on the fitted dose curve; in most records, active means well fitted inhibition curve with a large enough effect; inconclusive means small, poorly fitted or top-dose-only effect; inactive means flat fitted curve, though single readings scatter. No potency is given beside an inconclusive call; the fits are too rough.
# Target: Beta-lactamase (Escherichia coli (strain K12)) (UniProt P00811)
# Experiment: qHTS Inhibitors of AmpC Beta-Lactamase (assay with detergent); further: nearly all actives have a fitted effect of over 25% in size;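 on activity change, negative = inhibition: 0% = no-compound wells and -100% = no-enzyme wells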
# Details: AmpC hydrolysis of nitrocefin, absorbance 480 nm, 0.01% Triton; activity change, negative = inhibition: at 114 µM (top of the series)
# Procedure, shortened: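 20 mM phosphate pH 7.0 + 0.01% (detergent screen) or 0.0001% Triton X-100; 5.3 nM AmpC reagent; cpd preinc 15 min RT; nitrocefin (800 uM stock) to start; A480 q20 s × 4 min; Activity was normalised to no-enzyme and no-compound control wells.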
# Potency means the concentration at half of the fitted maximal effect; tags describe the fitted curve by direction and shape.
# Sequence of UniProt P00811 (P00811 whole entry, looked up): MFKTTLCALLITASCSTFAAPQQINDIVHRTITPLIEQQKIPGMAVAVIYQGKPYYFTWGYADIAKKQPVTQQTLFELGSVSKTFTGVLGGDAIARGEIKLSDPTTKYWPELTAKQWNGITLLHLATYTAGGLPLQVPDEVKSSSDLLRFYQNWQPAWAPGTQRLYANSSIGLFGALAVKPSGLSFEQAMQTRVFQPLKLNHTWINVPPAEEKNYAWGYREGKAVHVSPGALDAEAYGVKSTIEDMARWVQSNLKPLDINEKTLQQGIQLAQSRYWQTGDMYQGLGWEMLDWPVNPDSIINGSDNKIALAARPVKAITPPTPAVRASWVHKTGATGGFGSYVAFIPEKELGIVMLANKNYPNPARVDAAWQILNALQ
Compound,"activity change, negative = inhibition",Potency
Cc1cc(NC(=O)Nc2nnc(N(C)Cc3ccccc3)s2)ccc1Br,inactive: -5.47%,
CC(=O)N1CCN(c2cccc(C)c2C)CC1,,"inconclusive [inhibitor, full curve]"
O=C1NC(=Nc2ccccc2)SC1Cc1cccc(Cl)c1Cl (centres undefined),inactive: 2.04%,
O=c1sc(N2CCN(c3ccc(F)cc3)CC2)nc2ccsc12,,"inconclusive [inhibitor, full curve]"
COc1ccc(S(=O)(=O)N2CCOCC2)cc1NC(=O)c1cc2c(s1)CCCC2,inactive: -10.8%,
Cc1nnc(NC(=O)CSc2ccc(-c3ccco3)nn2)s1,inactive: -0.281%,
O=C(COC(=O)C1=COCCO1)NCCCc1ccccc1,,"inconclusive [inhibitor, full curve, poor fit]"
C/C(=N\NC(=O)c1cccc(O)c1)c1cccc(NC(=O)c2ccc(F)cc2)c1,inactive: 7.54%,
N#Cc1ccccc1Sc1ccccc1C(=O)NCC(c1ccco1)N1CCCC1 (centres undefined),,"inconclusive [inhibitor, partial curve, poor fit]"
Cc1cc(Cl)ccc1NC(=S)NCCC(c1ccccc1)c1ccccc1,,"inconclusive [inhibitor, full curve, poor fit]"
CCOC(=O)C1CCN(CC(O)COc2ccc(C(C)=O)cc2)CC1 (centres undefined),,"inconclusive [inhibitor, full curve, poor fit]"
CC(=O)N(Cc1c(C#N)c2ccccc2n1C)c1ccccc1,inactive: -7.02%,
CCOC(=O)C1=C(COCCN)NC(C)=C(C(=O)OC)C1c1ccccc1Cl (centres undefined),,"inconclusive [inhibitor, partial curve]"
Cc1ccc2c(c1)N(CCC(=O)NCc1ccccc1Cl)C(=O)CO2,inactive: 9.99%,
O=C(Nc1ccc2c(c1)oc1ccccc12)C1CC1,inactive: 2.79%,
COc1ccc(N/C(C)=C/C(=S)Nc2ccccc2)cc1,inactive: -6.82%,
CCOC(=O)CNC(=O)CSc1nnc(NC(=O)c2ccc(S(=O)(=O)N3CCOCC3)cc2)s1,inactive: 2.61%,
O=C(O)c1cccc(N2C(=O)/C(=C/c3ccc(SCc4ccc(Cl)cc4)o3)SC2=S)c1,inactive: 0.741%,
CCOCCCNC(=O)C1CCN(S(=O)(=O)c2cc(Br)cc3c2N(C(=O)CC)CC3)CC1,,"inconclusive [inhibitor, full curve, poor fit]"
Cc1ccc(N2C(=O)CC(Sc3nccc(C)n3)C2=O)cc1 (centres undefined),inactive: 2.06%,
Oc1ccc(/C=C/c2cc(O)cc(O)c2)cc1,,"inconclusive [inhibitor, partial curve]"
CC1(C)Cc2cccc(OCC(=O)N3CCN(c4ccc(F)cc4)CC3)c2O1,,"inconclusive [inhibitor, partial curve]"
S=C(NCc1ccccc1)NCC1COc2ccccc2O1 (centres undefined),,"inconclusive [inhibitor, full curve]"
Cc1cc(C(=O)NNC(=O)c2ccc(C)c([N+](=O)[O-])c2)c(C)o1,,"inconclusive [inhibitor, partial curve, poor fit]"
CC(=O)Nc1nnc(SCC(=O)NC2CCCC2)s1,inactive: -12.7%,

Compound,"activity change, negative = inhibition",Potency
O=Cc1ccccc1OCCOc1ccccc1C=O,,"inconclusive [inhibitor, partial curve, poor fit]"
COC(=O)c1cc(-c2c[nH]c3ccccc23)n[nH]1,inactive: -11.8%,
COc1ccc2nc(SCc3ccccc3C)nc(C)c2c1,inactive: -0.319%,
Cc1ccc(-c2nc3ccccc3c(=O)n2O)cc1,inactive: -0.993%,
Cc1ccc(OCCSc2nc3ccccc3n2CC(=O)O)cc1,,"inconclusive [inhibitor, partial curve]"
Cc1ccc(N(CC(=O)Nc2ccccc2-c2ccccc2)S(=O)(=O)c2ccccc2)cc1,,"inconclusive [inhibitor, full curve]"
O=C(Nc1ccc(S(=O)(=O)Nc2nccs2)cc1)c1cc(-c2ccccc2Cl)nc2ccccc12,,"inconclusive [inhibitor, partial curve, poor fit]"
Cc1cc(OCCOCCN2CCCC2)ccc1C(C)C,,"inconclusive [inhibitor, full curve, poor fit]"
S=C(Nc1ccccc1)Nc1cc(Cl)ccc1Oc1ccccc1,,"inconclusive [inhibitor, full curve]"
O=C(CSc1nnc(Cn2c(=O)sc3ccccc32)n1-c1ccccc1)NCC1CCCO1 (centres undefined),,"inconclusive [inhibitor, full curve]"
CCCNC(=O)Cn1nc(-c2ccc(F)cc2)c2cnc3ccc(F)cc3c21,inactive: 21.5%,
O=C1NC(=S)NC(=O)C1=Cc1cccc2cc3ccccc3cc12,inactive: 2.54%,
COc1cc(/C=C2\SC(N)=NC2=O)cc(OC)c1,,"inconclusive [inhibitor, single point]"
Cc1ccc(NC(=O)c2nc3nccc(C)n3n2)c(C)c1,,"inconclusive [inhibitor, full curve, poor fit]"
CCC(=O)N1N=C(c2ccc(NS(C)(=O)=O)cc2)CC1c1ccc(N(C)C)cc1 (centres undefined),inactive: 5.62%,
CCOc1cc(C(=O)Nc2cccc(C(C)=O)c2)ccc1OCC(=O)N1CCCCC1,,"inconclusive [inhibitor, partial curve]"
Cc1ccc(SCc2[nH]nc3c2C(C(C)C)C(C#N)=C(N)O3)cc1 (centres undefined),,"inconclusive [inhibitor, full curve, poor fit]"
COc1ccc(-n2cc(C(=O)NCc3ccccc3Cl)c3ccccc3c2=O)cc1,inactive: 13.8%,
CC(C)(C)c1ccc(/C=N/NC(=S)Nc2cccnc2)cc1,inactive: -1.28%,
O=C(Nc1ccc(N2CCN(C(=O)c3ccco3)CC2)c(Cl)c1)c1c(F)c(F)c(F)c(F)c1F,,"inconclusive [inhibitor, partial curve]"
O=C(NCCc1cccnc1)C1CCC(=O)N(Cc2cccc(C(F)(F)F)c2)C1 (centres undefined),inactive: 0.0281%,
O=C(NCc1ccccc1)c1c[nH]c2ccc(S(=O)(=O)Nc3ccc4c(c3)OCCO4)cc2c1=O,inactive: -7.16%,
CCn1c2ccccc2c2cc(NC(=O)COc3ccccc3)ccc21,inactive: -7.12%,
COc1cc(-c2nc3ccc(C)cn3c2NCc2ccccc2)ccc1SC1CCCCC1,,"inconclusive [inhibitor, full curve]"
